The supplement of paper PMC3334620
In all, about 33,000 sequences were measured (“E-score (-0.5 to 0.5)”: median about -0.01, highest 2% from about 0.26 on). The list shows a part of the results.

Target: Ste12 (UniProt P13574)
Test: PBM E-score (8-mer binding enrichment) (E-score (-0.5 to 0.5)); higher = stronger / more preferred TF binding; most listed sequences are background and not binding sites
Details: protein concentration: 200 nM; construct: GST-DNA-binding domain
Summary of the method: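 Detection of bound protein used fluorescent anti-GST, with scans normalised by masliner. The proteins were GST-tagged yeast transcription factors applied at about 100-200 nM to universal all-10-mer Agilent arrays made double-stranded by primer extension. Each ungapped eight-base word, pooled with its reverse complement, was scored with an E-score from the Universal PBM Analysis Suite.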

Sequence	PBM E-score
GGTTAACC	-0.184
AAGCGTCA	0.00059
CATCAAGC	0.0386
AGTCCAGC	-0.197
ATTCGGCA	0.00941
AATCCTAC	-0.13
ATTTCTAA	-0.0268
CCCAGAAC	-0.0133
AGCGCGAC	0.0868
ATTGGGTC	-0.00984
CTAGCTAA	0.0112
ACCGCTCG	0.0567
GTTGAGTA	0.078
CCATAACA	0.119
AGTCTTAA	-0.137
GCCGCTAC	0.113
AGTATGTG	0.0209
CACGTAAC	0.0303
CAGCACGA	-0.209
GAACGGCA	-0.0309
ACCATCAT	0.014
GTTAAATA	0.154
GGGATTTA	0.0903
ATGAGCTA	-0.0791
AAGCTGTG	-0.133

Sequence	PBM E-score
CGGCCCCC	-0.025
CTTTAGGA	0.0179
TGTTGAAA	0.311
CTAACCCA	-0.0411
TAAGTCTA	-0.179
GCACTGAA	0.113
ATCAGCTC	-0.089
ATGTAGTA	0.0487
TCCACCCA	-0.0525
GAGAGTCA	-0.035
ACGGGATC	0.0152
TGTGAGAA	0.145
AGAGGTAT	0.145
ATCCTTTA	0.105
ATTTATGA	0.189
ATGATCGG	0.112
ACGGTTAA	0.0419
GTGTATGA	0.085
CACAAGTG	-0.149
AATCTGCA	0.0137
CACGCGAA	-0.134
TAGGCTAA	-0.145
GTAGTGAA	-0.0841
CGCTCCGC	-0.0396
CCAGCACA	-0.105

Sequence	PBM E-score
ATTTCTAG	0.171
ACCCAGGA	-0.0909
CCCACATA	-0.0164
CAGTTCAA	0.0788
AACCAAAA	0.324
GAACAAAA	0.258
TCTTTGAA	0.161
CACTATCA	0.0757
CGAGTCAC	-0.0334
CCGCGAGA	-0.0731
GCGGGTTA	0.0599
GAGCGCAA	-0.233
TCGTATCA	0.137
ACAGGCGC	-0.169
AGCAGAAG	0.0292
GAAGGATA	-0.14
GACGTAAC	0.0892
GTGTAGGA	0.0365
AGATTGAC	0.108
AAATTATC	0.222
CGTTTGAC	-0.0236
CCCGTATA	0.0478
ATGTCTCA	0.289
ATATATAA	0.273
AAATTGAC	0.211

Sequence	PBM E-score
CCTTTTAG	-0.205
ACGCTATA	-0.0754
ATATTTTG	0.148
ACTGTGTA	0.0508
AGTTACTC	-0.00049
AAGCTCTC	-0.0877
AGTGGGGA	0.00622
TTCCCGAA	0.258
TCCTACGA	-0.148
ACCCCAAC	0.0179
ACGCAGTG	-0.221
ACGTGGAT	-0.0738
CATCAGTC	-0.241
ACCTAGGC	-0.071
CCGAATAG	-0.0705
CATAGGGA	-0.137
CCCCCTCA	-0.237
GCTGTGTA	-0.0397
CTCTAAGC	0.0232
ACAAAGAC	0.129
GCACGTAC	-0.0433
ACACTTTC	0.138
ATACAAAA	0.209
ATGCGAGC	-0.053
ACTCTGCT	-0.0783

Sequence	PBM E-score
CCACACTC	-0.13
TAACCAGA	-0.0548
ACTGCCAT	-0.0496
CGCTCCTC	-0.106
CTATGCAA	0.0788
CTCCAGTA	-0.0299
ACAATATA	0.271
ACGGTACC	0.0131
ATGTACAA	0.0988
CGACCAGC	-0.0957
CCACAACA	-0.00701
ACACCGGT	0.088
ACATGGAA	0.0849
GAGTCACA	-0.0446
AATTCCTA	0.148
CTAGGCAG	-0.0674
ACATTATC	0.127
ACAAAGAT	0.0339
AGGCTGTA	0.0827
CGTACCCC	-0.0545
GTCGCAAA	0.188
ATCCTCTC	-0.096
GGGAGGCA	-0.0116
GCACATCC	-0.0791
CGTTCCGA	0.00375

Sequence	PBM E-score
ACCCTACG	-0.202
AGTCATAC	-0.0518
ACCGGGAT	-0.0963
CGCCTAAC	0.177
CTGGAGTC	-0.208
CTCCAAGA	0.0165
CTACCGAA	-0.131
TACTGTCA	0.0452
AGGATTCA	0.042
CAACAATA	0.0548
ACCCCCCT	-0.175
GCCGATAC	-0.11
CGAAATGC	0.0117
CACGCATC	-0.0242
AACGAGTG	-0.115
TAACAGGA	0.0224
ATACTCCG	-0.0141
CCGGTTAG	-0.157
CGGCGCAG	-0.0193
ACCCTCAT	-0.228
AGTACCAC	-0.128
GCTAGTGA	-0.0131
CACTTCCG	0.00128
CGTATCGA	-0.0442
CGTGGGCA	-0.209

Sequence	PBM E-score
AACATTGA	0.0921
CCACTCGA	-0.0417
CGTGAGAA	-0.0592
CGCGGGAC	0.012
CATGGCAC	0.00858
AGTTAGTC	0.00462
ACGCAAGT	-0.0349
AGGAATGA	0.0707
GTGCGACA	0.0229
ACGTATAC	-0.0353
CTTTCCAC	-0.0397
AATTGCGC	0.0707
CATGGTAA	-0.0396
ACCCTCGT	0.0908
GGCTAGTA	0.166
AGTTAGGA	-0.101
ACTTCCCG	-0.0712
AGTCGGAC	-0.19
TACTATGA	0.219
GAGCGCTC	-0.148
ATACCGCG	0.0968
ATTTATTG	0.0911
ATAGAAAG	0.0458
GTTGGACA	-0.21
ATTGTGTC	0.214

Sequence	PBM E-score
CAATTCTC	0.00128
GATCTCGC	-0.162
AAGTAAGT	-0.0682
AACGGCAG	0.00383
ACTTATAC	0.0485
AAAGTTAA	0.224
CTGCCGCC	-0.248
GTTGCCTA	-0.0783
CAAGTTGA	0.0872
GACCATCA	-0.112
ATTTCGTA	0.101
CTTGAGAA	0.0914
GGAGTTTA	-0.0861
AACGTTCC	-0.0942
AACAGTAT	0.108
ACTTATGG	-0.157
CCATTGAG	-0.0139
GCTGGGTA	-0.162
ATGCACTC	-0.145
ACAGATAG	-0.1
AACTTCTC	0.0155
CCGATTTC	0.00173
CCCCGCCC	0.347
ATACCAAA	0.134
CATGCAGG	-0.19

Sequence	PBM E-score
CTTCGCCC	-0.173
AGTGATGC	-0.099
GTTGAATA	0.229
AAATCAGC	0.15
GAACAATC	-0.0608
CACCATCC	-0.144
CATCACAC	0.00751
AGATTGCT	-0.196
AGATACAC	0.0755
ACCGGGCT	-0.0606
GCCGATCA	0.0313
GATTCGAA	0.277
ACTAATTA	0.202
TGGACCAA	-0.0682
ATAGACAC	-0.141
CCAACCGG	-0.063
AGTTCCTC	-0.189
AGGCGAGC	-0.201
CACCGACG	0.052
GTTAGCAA	0.0401
GGGTATGA	0.178
CCAAAAGA	0.202
AGCCTCCT	-0.0314
ACCCTAGG	-0.0167
AATGGCTA	-0.0416

Sequence	PBM E-score
CCCATAAG	-0.00968
ACATGGGG	-0.0482
CCCGGCGG	0.0682
CGTCGTCC	-0.179
GCTAACAC	0.0192
CAACGCAA	0.0466
GGCGAACA	0.0197
CGTACCTC	-0.0676
ATTCGGCG	-0.0331
AGGCGTAT	0.0111
AAATGAGC	0.0671
ATATCCAC	0.161
AGGCAACC	-0.159
ATTAAAAA	0.295
ACGTTTTC	0.147
GTCTGAAC	0.114
AAGAATTC	0.165
AAGGCGAA	-0.101
GTCCGGCA	-0.0181
TCAAGTCA	0.0747
AAAGGCGC	-0.0771
CTCGCACC	-0.103
AACCAGGC	-0.0978
TCGTGAGA	-0.0655
GTACGGCA	-0.147

Sequence	PBM E-score
GCGGACCC	-0.0894
CAACGGAA	0.114
CACAAATG	0.0373
ACTAGACG	-0.0209
AGAGAGCG	-0.231
CACCAAGC	-0.0887
CAGTCCCC	-0.071
ATGGGGGC	-0.196
GGTCTGTA	0.0858
AAGAAGTA	0.0834
AAGATACA	0.151
ATATGGGG	0.0381
CAGATTGG	-0.233
GTCACGGA	-0.0756
ATATGAAC	0.154
ACCGGCAT	0.129
CCAGTGAC	-0.241
ACACCGGC	0.104
CGACTGTA	-0.219
AAGCAGTC	-0.00293
TATCCTAA	-0.106
TAGTAAAA	0.211
ATCAAGTA	-0.023
CCATACGA	-0.227
ACAATCTG	0.087

Sequence	PBM E-score
AGTATGTA	0.118
ACGCTAGA	-0.209
ACCGAGGA	0.0937
TAGTGCCA	-0.172
CTTCACTA	0.0616
GGGTGCAA	0.0253
TAAAGATA	0.137
GGGAAAGA	-0.129
CAAGGCGC	0.016
AAAATGCG	0.154
GTCAATGA	-0.0453
ACTGAGCT	-0.277
CTGAGATA	0.0495
AAAGACTT	0.0106
ACACCGGG	-0.0722
AGACTGGG	-0.0904
GCTTGAGA	0.001
AGTACGGC	-0.107
ATAGTTTA	0.0232
CTAGACGA	-0.0176
AAGTTTAC	0.00524
TATTCTGA	0.101
CTATGGAG	-0.199
AGACTGCG	-0.18
GATGACCC	-0.167

Sequence	PBM E-score
ACTCGAAC	0.0493
ATACCTAC	-0.0415
CCAGCTCC	-0.235
GAATTGCA	0.00577
TCCACGGA	0.0111
ATATGCCC	-0.203
AATCGTTA	-0.0373
CGTGATCA	-0.00817
AGGAACTA	-0.0651
ATGCCAGG	-0.189
ATAGGAAG	0.0065
CGGTCCAA	-0.216
CTATCATC	-0.029
ACTGAGGG	-0.101
CATACAGG	-0.0981
AGATGTAA	0.0636
CCCCTGAG	0.00996
ATAAAGCA	0.118
ATATCAAG	0.139
ACTGCCAC	-0.0138
AAGCATAC	0.00103
AGTCGTCC	-0.211
CCGCCACG	-0.00392
CACCGTTC	-0.191
ACTATGGG	-0.158

Sequence	PBM E-score
ACTTGGTC	-0.0079
GTTTTCAA	0.32
GGAGCATA	0.136
ACATGTCG	-0.0365
ATCATGGC	-0.0299
GGCGCTGA	-0.16
GGATCGCA	0.0402
CCAGGAGA	-0.24
CATGGAGA	-0.0888
CCTGATAA	-0.0419
CCCCTAAA	-0.0522
GGGTCCGA	-0.0934
TAACGGTA	-0.053
TACTTTGA	0.167
CCTAACAA	0.131
CATCGCTC	-0.184
GTATTAAA	0.166
CAGGCTGC	-0.135
TCGATACA	0.19
